Article PMC6919601, “Identification of Plasmodium dipeptidyl aminopeptidase allosteric inhibitors by high throughput screening” (PLoS ONE, 2019)
In all, about 110,000 compounds went through this assay and about 230 (0.21%) showed an effect of 50% or more. The list shows a part of the results.

target: DPAP1 (Plasmodium falciparum, UniProt Q8IIJ9); test: primary screen, percent inhibition; read by cleavage of a fluorogenic dipeptide substrate; higher = more effect of the substance; set-up: species or system P. falciparum D10 trophozoite lysates; single well
Sequence (Q8IIJ9 whole entry, looked up): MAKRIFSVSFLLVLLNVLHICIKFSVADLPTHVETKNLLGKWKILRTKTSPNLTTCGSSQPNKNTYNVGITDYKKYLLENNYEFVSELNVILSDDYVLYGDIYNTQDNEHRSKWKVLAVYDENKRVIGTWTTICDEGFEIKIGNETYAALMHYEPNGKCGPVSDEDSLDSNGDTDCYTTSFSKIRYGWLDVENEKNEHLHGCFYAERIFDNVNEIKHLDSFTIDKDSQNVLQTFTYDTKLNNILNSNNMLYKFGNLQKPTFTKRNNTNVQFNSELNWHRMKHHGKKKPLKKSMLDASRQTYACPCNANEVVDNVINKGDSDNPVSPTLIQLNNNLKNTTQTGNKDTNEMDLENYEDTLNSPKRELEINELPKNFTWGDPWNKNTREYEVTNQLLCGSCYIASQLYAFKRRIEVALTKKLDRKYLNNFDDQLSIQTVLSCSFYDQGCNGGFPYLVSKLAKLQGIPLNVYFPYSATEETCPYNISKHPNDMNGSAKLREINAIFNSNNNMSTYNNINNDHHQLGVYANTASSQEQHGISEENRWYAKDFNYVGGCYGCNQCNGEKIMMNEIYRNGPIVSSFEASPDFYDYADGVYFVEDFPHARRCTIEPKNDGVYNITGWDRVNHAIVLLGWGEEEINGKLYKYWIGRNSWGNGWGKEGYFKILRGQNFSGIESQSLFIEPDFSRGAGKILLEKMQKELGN
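Also: 30 min substrate incubation versus DMSO and 10 µM JCP410 controls.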

Point of comparison: `Brc1ccc(-c2csc(-c3ccncc3)n2)cc1`, “% Inhibition @ 10 uM” value -2.92%. Against it:
- CCOC(=O)N1CCN(S(=O)(=O)c2cc(Cl)c(OC)cc2Cl)CC1 — higher, 1.03%
- COc1ccc(-c2cn3c(C)c(C(=O)N4CCc5ccccc5C4)sc3n2)cc1 — higher, 1.55%
- COc1ccc(OC)c(CN2CCN(Cc3cccc(OC)c3OC)CC2)c1 — higher, 0.992%
- Cn1cccc1Cc1nnc(SCC(=O)NCc2ccccc2)n1C — higher, -2.45%
- CCc1sc(C2C(C#N)=C(N)Oc3[nH]nc(C)c32)cc1Br (stereo not shown) — lower, -10.3%
- Cc1nsc2ccc3ccsc3c12 — higher, 3.36%
- NC(=O)c1c(NC(=O)C2CCCCC2)sc2c1CCCC2 — higher, 7.76%
- Brc1ccc(-c2nc(Cc3ccccc3)no2)cc1 — higher, 5.68%
- CCOc1ccccc1C(=O)Nc1c(-c2ccc(OC)cc2)nc2cc(C)ccn12 — higher, 9.6%
- CCOc1ccc(-c2cc(NC(=O)Cn3ncc4c3-c3ccccc3OC4)on2)cc1 — higher, 0.981%
- CCCCNC(=O)C(C)n1nc(C)c2c(C)n(-c3ccccc3)nc2c1=O (stereo not shown) — higher, 3.33%
- CSc1nc2c(c(=O)n1-c1ccccc1)C1(CCCCC1)Cc1ccccc1-2 — lower, -5.62%
- Cc1ccc(S(=O)(=O)N2CCC(C(=O)N3CCCC(C)C3)CC2)cc1 (stereo not shown) — higher, -2.87%
- CSc1cc(S(=O)(=O)c2ccc(Cl)c(SC)c2)ccc1Cl — higher, 1.24%
- O=C(C1=C(O)C(=O)N(CCO)C1c1ccc(F)cc1)c1ccc(Cl)cc1 (stereo not shown) — higher, -2.32%
- COc1ccc(-c2nc(O)c3c(n2)Oc2ccc(Cl)cc2C3)cc1 — higher, -1.06%
- COc1ccccc1/C=C/C(=O)c1ccsc1 — higher, 1.87%
- COc1cc(OC)c2c(-c3ccccc3)cc(=O)oc2c1 — higher, 4.67%
- O=C(Nc1cccc(C(F)(F)F)c1)/C(=C/c1cccnc1)NC(=O)c1cccc(Br)c1 — higher, 21.5%
- CCCc1ccc(OCc2ccc(C(=O)OC)o2)cc1 — higher, -1.33%
- COc1ccc2nc(C)c3cc(C)oc3c2c1 — lower, -6.83%
- Clc1ccc(Sc2c(-c3ccccc3)nc3ccccn23)cc1 — lower, -5.51%
- COc1cc(Cl)c(S(=O)(=O)N2CCN(Cc3ccc4c(c3)OCO4)CC2)cc1Cl — lower, -4.33%
- Cc1cc(Oc2ccc(=O)n(C)n2)nc(SCC(N)=O)n1 — lower, -10.8%
- CCC1CCC(NCCN2CCOCC2)CC1 (stereo not shown) — higher, -1.78%
- COc1ccccc1-c1c(C)nn2c(N(C)C3CCCCC3)cc(C)nc12 — higher, 0.238%
- Oc1nc(/C=C/c2ccc(Cl)cc2Cl)cc(C(F)(F)F)n1 — higher, 4.54%
- CCCC(=O)N1CCN(Cc2ccc3c(c2)OCO3)CC1 — lower, -3.12%
- Cc1n[nH]c(C)c1CCCOc1ccc(C(C)(C)C)cc1 — higher, -1.62%
- COc1ccc(C(=O)N2CCN(C(=O)Cc3ccccc3)CC2)cc1 — higher, 0.587%
- CCN(C(=O)c1cccs1)c1ccccc1 — higher, 10.5%
- CN(CC(=O)O)c1ccccc1C(=O)O — higher, 3.16%
- O=C(Cn1ccc2cc(S(=O)(=O)N3CCCC3)ccc21)NCc1ccco1 — lower, -3.69%
- CCOC(=O)C1CCCN(C2CCN(CC)CC2)C1 (stereo not shown) — higher, 3.19%
- O=C(/C=C/c1ccccc1)Nc1nnc(/N=C/c2ccc(Br)s2)s1 — higher, -0.615%
- CCN(CC)CCCNC(=O)c1cc(-c2ccc(O)cc2)on1 — higher, 1.37%
- COc1ccc(CN2CCOC(=O)C2=O)cc1OC — higher, 0.0539%
- Cn1nnnc1SCCCNCc1ccc2c(c1)OCO2 — higher, 2.25%
- Nc1ccc(C(=O)Nc2cccnc2)c(C(=O)O)c1 — higher, 1.73%
- Cc1nc(N2C(=O)C(O)=C(C(=O)c3ccccc3)C2c2ccc(Br)cc2)sc1C (stereo not shown) — higher, 15.2%
- O=C1NCCCC1C(=O)NCC(O)CO (stereo not shown) — higher, 1.82%
- O=S(=O)(c1ccc(F)cc1)N1CN2CCN(C2)C1 — higher, -2.91%
- COc1ccc2cc(-c3nc(-c4cccs4)no3)c(=O)oc2c1 — higher, 10.3%
- O=C(c1cccs1)N1CCN(C/C=C/c2ccccc2)CC1 — higher, 6.8%
- COc1ccc(C2=NN(C(=O)CCC(=O)O)C(c3ccc(OC)cc3)C2)cc1 (stereo not shown) — lower, -11.2%
- Cc1ccccc1C(=O)Nc1sc2c(c1C(=O)N1CCN(C)CC1)CCC(C)C2 (stereo not shown) — higher, -0.46%
- Nc1ccc(S(=O)(=O)N2CCCCC2)cc1 — higher, 2.94%
- COc1cc(NC(=O)CSc2nc(-c3ccc4c(c3)OCO4)ccc2C#N)cc(OC)c1OC — higher, 2.68%
- COc1ccccc1CCNCc1c(C(=O)O)c(C)n(Cc2ccccc2C)c1C — higher, 4.53%
- CCCOc1ccc(N2C(=O)CC(NCC34CC5CC(CC(C5)C3)C4)C2=O)cc1 (stereo not shown) — lower, -6.02%
- Cn1nccc1CNC(=O)c1ccc(COc2cc(Cl)ccc2Cl)o1 — higher, 2.4%
- O=S(=O)(c1ccc2cccc3c2c1CC3)N1CCSC1c1ccco1 (stereo not shown) — higher, 0.727%
- Cc1ccc(C(=O)n2nc(-c3ccccc3)nc2NCc2ccccc2)cc1 — higher, 2.31%
- CCCN1CCC(N2CCN(c3cccc(Cl)c3)CC2)CC1 — lower, -6.85%
- COc1cc(CN2CCN(C3C4CC5CC(C4)CC3C5)CC2)cc(OC)c1O (stereo not shown) — lower, -9.18%
- COc1cc2c(cc1OC)-c1nnnn1C(C)(C)C2 — higher, 4.57%
- COCCNC(=O)CCc1c(C)nc2cc(-c3ccc(Cl)cc3)nn2c1C — higher, 1.26%
- Cc1ccc(-c2cc(C(=O)NCC3CCCO3)c3ccccc3n2)o1 (stereo not shown) — lower, -9.11%
- COc1cccc(/C=C2/S/C(=N\c3ccc(C)cc3)N(C)C2=O)c1OC — lower, -6.05%
- O=C(NCC1CCN(Cc2ccc(F)cc2)CC1)C(Cc1ccccc1)N1Cc2ccccc2C1=O (stereo not shown) — higher, -1.58%
- CCOc1ccc(CN(C2CC2)S(=O)(=O)c2ccc(S(=O)(=O)N(C)C)cc2)cc1 — higher, 5.2%
- COc1ccc(CNC(=O)C2CCC(C/N=c3/c(N4CCOCC4)c(O)c3=O)CC2)cc1 (stereo not shown) — lower, -7.72%
- O=C(CSc1nnc(Cc2ccccc2)o1)NC1CCCCC1 — higher, 0.166%
- CCCCN1C(=O)C(O)(CCCC)C(=O)c2ccccc21 (stereo not shown) — higher, 3.92%
- Cc1ccc(C)c(-c2csc(NC(=O)c3cc(C)oc3C)c2C#N)c1 — higher, 2.08%
- COc1ccc(C(=O)C2=C(O)C(=O)N(c3ccc(C)c(Br)c3)C2c2cccnc2)cc1 (stereo not shown) — lower, -3.34%
